Data reported in article PMC9911399, “Two distinct binding modes provide the RNA-binding protein RbFox with extraordinary sequence specificity”.
Changes are numbered by the printed parent chain; changes in the protein carry UniProt numbers. The list shows a part of the results.

B1: CUCCGAG (DNA:RNA)
RNA: GGGAGACCGGAAUUCAGAUUGUCCCUCCGAGUUAAAUCCCGUCGUAGCCACCA
DNA 1: CAATCTGAATTCCGGTCTCCC
DNA 2: TGGTGGCTACGACGGGATT
B2: GGGAUAA (DNA:RNA)
RNA: B1 RNA with C25G, U26G, C27G, C28A, G29U, G31A
DNA 1: CAATCTGAATTCCGGTCTCCC
DNA 2: TGGTGGCTACGACGGGATT
B3: ACAAAAA (DNA:RNA)
RNA: B1 RNA with C25A, U26C, C27A, C28A, G29A, G31A
DNA 1: CAATCTGAATTCCGGTCTCCC
DNA 2: TGGTGGCTACGACGGGATT
B4: GACACAA (DNA:RNA)
RNA: B1 RNA with C25G, U26A, C28A, G29C, G31A
DNA 1: CAATCTGAATTCCGGTCTCCC
DNA 2: TGGTGGCTACGACGGGATT
B5: ACAGCGA (DNA:RNA)
RNA: GGGAGACCGGAAUUCAGAUUGUCCACAGCGAUUAAAUCCCGUCGUAGCCACCA
DNA 1: CAATCTGAATTCCGGTCTCCC
DNA 2: TGGTGGCTACGACGGGATT
B6: CGUUGUA (DNA:RNA)
RNA: B1 RNA with U26G, C27U, C28U, A30U, G31A
DNA 1: CAATCTGAATTCCGGTCTCCC
DNA 2: TGGTGGCTACGACGGGATT
B7: UAACGCC (DNA:RNA)
RNA: B1 RNA with C25U, U26A, C27A, A30C, G31C
DNA 1: CAATCTGAATTCCGGTCTCCC
DNA 2: TGGTGGCTACGACGGGATT
B8: AUUCGAA (DNA:RNA)
RNA: B1 RNA with C25A, C27U, G31A
DNA 1: CAATCTGAATTCCGGTCTCCC
DNA 2: TGGTGGCTACGACGGGATT
B9: GUGAGAG (DNA:RNA)
RNA: B1 RNA with C25G, C27G, C28A
DNA 1: CAATCTGAATTCCGGTCTCCC
DNA 2: TGGTGGCTACGACGGGATT
B10: CACCAUG (DNA:RNA)
RNA: B1 RNA with U26A, G29A, A30U
DNA 1: CAATCTGAATTCCGGTCTCCC
DNA 2: TGGTGGCTACGACGGGATT
B11: UCAGUCU (DNA:RNA)
RNA: B5 RNA with A25U, C29U, G30C, A31U
DNA 1: CAATCTGAATTCCGGTCTCCC
DNA 2: TGGTGGCTACGACGGGATT
B12: GCCCGAA (DNA:RNA)
RNA: B1 RNA with C25G, U26C, G31A
DNA 1: CAATCTGAATTCCGGTCTCCC
DNA 2: TGGTGGCTACGACGGGATT
B13: CCAGCCA (DNA:RNA)
RNA: B5 RNA with A25C, G30C
DNA 1: CAATCTGAATTCCGGTCTCCC
DNA 2: TGGTGGCTACGACGGGATT
B14: GCUCAGU (DNA:RNA)
RNA: B5 RNA with A25G, A27U, G28C, C29A, A31U
DNA 1: CAATCTGAATTCCGGTCTCCC
DNA 2: TGGTGGCTACGACGGGATT
B15: GGGUCUG (DNA:RNA)
RNA: B5 RNA with A25G, C26G, A27G, G28U, G30U, A31G
DNA 1: CAATCTGAATTCCGGTCTCCC
DNA 2: TGGTGGCTACGACGGGATT
B16: AGACGAG (DNA:RNA)
RNA: B1 RNA with C25A, U26G, C27A
DNA 1: CAATCTGAATTCCGGTCTCCC
DNA 2: TGGTGGCTACGACGGGATT
B17: UCAGGAC (DNA:RNA)
RNA: B5 RNA with A25U, C29G, G30A, A31C
DNA 1: CAATCTGAATTCCGGTCTCCC
DNA 2: TGGTGGCTACGACGGGATT
B18: CCAGCCC (DNA:RNA)
RNA: B5 RNA with A25C, G30C, A31C
DNA 1: CAATCTGAATTCCGGTCTCCC
DNA 2: TGGTGGCTACGACGGGATT
B19: CUCCCCG (DNA:RNA)
RNA: B1 RNA with G29C, A30C
DNA 1: CAATCTGAATTCCGGTCTCCC
DNA 2: TGGTGGCTACGACGGGATT
B20: UAACGCG (DNA:RNA)
RNA: B1 RNA with C25U, U26A, C27A, A30C
DNA 1: CAATCTGAATTCCGGTCTCCC
DNA 2: TGGTGGCTACGACGGGATT
B21: UUUAUAU (DNA:RNA)
RNA: B1 RNA with C25U, C27U, C28A, G29U, G31U
DNA 1: CAATCTGAATTCCGGTCTCCC
DNA 2: TGGTGGCTACGACGGGATT
B22: UAUCGUC (DNA:RNA)
RNA: B1 RNA with C25U, U26A, C27U, A30U, G31C
DNA 1: CAATCTGAATTCCGGTCTCCC
DNA 2: TGGTGGCTACGACGGGATT
B23: UGCGUAU (DNA:RNA)
RNA: B1 RNA with C25U, U26G, C28G, G29U, G31U
DNA 1: CAATCTGAATTCCGGTCTCCC
DNA 2: TGGTGGCTACGACGGGATT
B24: CCAGGGU (DNA:RNA)
RNA: B5 RNA with A25C, C29G, A31U
DNA 1: CAATCTGAATTCCGGTCTCCC
DNA 2: TGGTGGCTACGACGGGATT
B25: GGGCUCU (DNA:RNA)
RNA: B1 RNA with C25G, U26G, C27G, G29U, A30C, G31U
DNA 1: CAATCTGAATTCCGGTCTCCC
DNA 2: TGGTGGCTACGACGGGATT
B26: GUGGUGG (DNA:RNA)
RNA: B5 RNA with A25G, C26U, A27G, C29U, A31G
DNA 1: CAATCTGAATTCCGGTCTCCC
DNA 2: TGGTGGCTACGACGGGATT
B27: CAACACU (DNA:RNA)
RNA: B1 RNA with U26A, C27A, G29A, A30C, G31U
DNA 1: CAATCTGAATTCCGGTCTCCC
DNA 2: TGGTGGCTACGACGGGATT
B28: ACCUUGU (DNA:RNA)
RNA: B5 RNA with A27C, G28U, C29U, A31U
DNA 1: CAATCTGAATTCCGGTCTCCC
DNA 2: TGGTGGCTACGACGGGATT
B29: AUUUCGG (DNA:RNA)
RNA: B5 RNA with C26U, A27U, G28U, A31G
DNA 1: CAATCTGAATTCCGGTCTCCC
DNA 2: TGGTGGCTACGACGGGATT
B30: AUCUGAG (DNA:RNA)
RNA: B1 RNA with C25A, C28U
DNA 1: CAATCTGAATTCCGGTCTCCC
DNA 2: TGGTGGCTACGACGGGATT
B31: CGCUAUA (DNA:RNA)
RNA: B1 RNA with U26G, C28U, G29A, A30U, G31A
DNA 1: CAATCTGAATTCCGGTCTCCC
DNA 2: TGGTGGCTACGACGGGATT

What follows are binders tested against T1, RBFOX1 RRM (Homo sapiens, UniProt Q9NWB1 109-208) (assay: EMSA; HiTS-Eq, 1 nM pool, 10 min; buffer printed only for the single-RNA assays: 10 mM Tris pH 7.5, 150 mM NaCl, 3.4 mM EDTA, 0.001% NP-40, 30 C). Details: tags: His6 N-terminal (pET28a); label: 5' 32P.
T1 sequence: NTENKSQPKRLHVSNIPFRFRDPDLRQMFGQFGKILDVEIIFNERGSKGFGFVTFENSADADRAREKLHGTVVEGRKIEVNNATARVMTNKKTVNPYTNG
Procedure, shortened: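 Purified wild-type or mutant RbFox RRM at increasing concentrations was equilibrated with 1 nM of 5′-radiolabelled RNA carrying 7 randomized nucleotides for 10 min in 50 µL. Unbound RNA was separated by 8% native PAGE and sequenced. Relative association constants came from read-count changes of each RNA species compared with the control reaction, normalised to the cognate motif.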

**Q.** For B1, which binding signal is on record?
**A.** The binding signal was 0.009 KA relative to UGCAUGU.

**Q.** For B2, which binding signal is on record?
**A.** The binding signal was 0.0268 KA relative to UGCAUGU.

**Q.** How did the binding signal turn out when B3 was run?
**A.** The binding signal was 0.000316 KA relative to UGCAUGU.

**Q.** For B4, which binding signal is on record?
**A.** The binding signal was 0.00153 KA relative to UGCAUGU.

**Q.** How did the binding signal turn out when B5 was run?
**A.** The binding signal was 0.00555 KA relative to UGCAUGU.

**Q.** B6 was tested. Which binding signal did it give?
**A.** The binding signal was 0.00783 KA relative to UGCAUGU.

**Q.** Which binding signal does the source give for B7 here?
**A.** The binding signal was 0.00751 KA relative to UGCAUGU.

**Q.** With B8 as the binder, how does the binding signal read?
**A.** Its binding signal is 0.00783 KA relative to UGCAUGU.

**Q.** Which binding signal does the source give for B9 here?
**A.** Its binding signal is 0.0165 KA relative to UGCAUGU.

**Q.** Which binding signal does the source give for B10 here?
**A.** Its binding signal is 0.00289 KA relative to UGCAUGU.

**Q.** Which binding signal does the source give for B11 here?
**A.** Its binding signal is 0.00895 KA relative to UGCAUGU.

**Q.** B12 was tested. Which binding signal did it give?
**A.** Its binding signal is 0.0111 KA relative to UGCAUGU.

**Q.** Which binding signal does the source give for B13 here?
**A.** The binding signal was 0.00333 KA relative to UGCAUGU.

**Q.** How did the binding signal turn out when B14 was run?
**A.** The binding signal was 0.0126 KA relative to UGCAUGU.

**Q.** For B15, which binding signal is on record?
**A.** Its binding signal is 0.0262 KA relative to UGCAUGU.

**Q.** Which binding signal does the source give for B16 here?
**A.** Its binding signal is 0.00948 KA relative to UGCAUGU.

**Q.** How did the binding signal turn out when B17 was run?
**A.** The binding signal was 0.00512 KA relative to UGCAUGU.

**Q.** B18 was tested. Which binding signal did it give?
**A.** The binding signal was 0.00534 KA relative to UGCAUGU.

**Q.** With B19 as the binder, how does the binding signal read?
**A.** The binding signal was 0.00115 KA relative to UGCAUGU.

**Q.** How did the binding signal turn out when B20 was run?
**A.** The binding signal was 0.0108 KA relative to UGCAUGU.

**Q.** How did the binding signal turn out when B21 was run?
**A.** Its binding signal is 0.00264 KA relative to UGCAUGU.

**Q.** B22 was tested. Which binding signal did it give?
**A.** Its binding signal is 0.00934 KA relative to UGCAUGU.

**Q.** For B23, which binding signal is on record?
**A.** Its binding signal is 0.015 KA relative to UGCAUGU.

**Q.** B24 was tested. Which binding signal did it give?
**A.** The binding signal was 0.00727 KA relative to UGCAUGU.

**Q.** With B25 as the binder, how does the binding signal read?
**A.** Its binding signal is 0.0214 KA relative to UGCAUGU.

**Q.** With B26 as the binder, how does the binding signal read?
**A.** The binding signal was 0.0237 KA relative to UGCAUGU.

**Q.** With B27 as the binder, how does the binding signal read?
**A.** Its binding signal is 0.000632 KA relative to UGCAUGU.

**Q.** How did the binding signal turn out when B28 was run?
**A.** The binding signal was 0.01 KA relative to UGCAUGU.

**Q.** For B29, which binding signal is on record?
**A.** The binding signal was 0.0104 KA relative to UGCAUGU.

**Q.** Which binding signal does the source give for B30 here?
**A.** The binding signal was 0.0218 KA relative to UGCAUGU.

**Q.** B31 was tested. Which binding signal did it give?
**A.** Its binding signal is 0.00135 KA relative to UGCAUGU.
